# In the supplement of paper PMC8728848:
# The other results are listed elsewhere or left out.
# Columns and labels:
# Assay in all cases: glycan array binding signal (z-score within array); higher = stronger binding
# Conditions in all cases: glycan notation: IUPAC condensed, linker removed
# [1] = molecular target: GalNAc(b1-3)Gal(a1-4)Gal(b1-4)GlcNAc
# How it was run: (§1)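 The binding signal is a Z-score computed within each array and averaged over linkers. Arrays of the same protein sequence at different concentrations or buffers were also averaged together. Data originate from 3228 arrays in the Consortium for Functional Glycomics database, kept only where the protein sequence was available.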
# [2] = molecular target: GalNAc(b1-3)Gal(a1-4)Gal(b1-4)GlcNAc(b1-3)Gal(b1-4)Glc
# How it was run: as §1
# [3] = molecular target: GalNAc(b1-3)Gal(a1-6)Gal(b1-4)Glc
# How it was run: as §1
# GalNAc(b1-3)GalNAc = molecular target: GalNAc(b1-3)GalNAc
# How it was run: as §1
# GalNAc(b1-4)GlcNAc = molecular target: GalNAc(b1-4)GlcNAc
# How it was run: as §1
# [4] = molecular target: GalNAc(b1-4)GlcNAc(b1-2)Man(a1-3)[GalNAc(b1-4)GlcNAc(b1-2)Man(a1-6)]Man(b1-4)GlcNAc(b1-4)GlcNAc
# How it was run: as §1
# Glc(a1-4)Glc = molecular target: Glc(a1-4)Glc
# How it was run: as §1
# Glc(a1-6)Glc(a1-6)Glc = molecular target: Glc(a1-6)Glc(a1-6)Glc
# How it was run: as §1
# Glc(b1-4)Glc = molecular target: Glc(b1-4)Glc
# How it was run: as §1
# Glc(b1-6)Glc = molecular target: Glc(b1-6)Glc
# How it was run: as §1
# GlcA(b1-3)Gal = molecular target: GlcA(b1-3)Gal
# How it was run: as §1
# GlcA(b1-3)GlcNAc = molecular target: GlcA(b1-3)GlcNAc
# How it was run: as §1
# GlcA(b1-6)Gal = molecular target: GlcA(b1-6)Gal
# How it was run: as §1
# [5] = molecular target: GlcNAc(a1-3)Gal(b1-4)GlcNAc
# How it was run: as §1
# [6] = molecular target: GlcNAc(a1-4)Gal(b1-3)GlcNAc
# How it was run: as §1
# [7] = molecular target: GlcNAc(a1-4)Gal(b1-4)GalNAc
# How it was run: as §1
# [8] = molecular target: GlcNAc(a1-4)Gal(b1-4)GlcNAc
# How it was run: as §1
# [9] = molecular target: GlcNAc(a1-4)Gal(b1-4)GlcNAc(b1-3)Gal(b1-4)Glc
# How it was run: as §1
# [10] = molecular target: GlcNAc(a1-4)Gal(b1-4)GlcNAc(b1-3)Gal(b1-4)GlcNAc
# How it was run: as §1
# [11] = molecular target: GlcNAc(a1-4)Gal(b1-4)GlcNAc(b1-3)Gal(b1-4)GlcNAc(b1-3)Gal(b1-4)GlcNAc
# How it was run: as §1
# [12] = molecular target: GlcNAc(a1-4)Gal(b1-4)GlcNAc(b1-3)Gal(b1-4)[Fuc(a1-3)]GlcNAc(b1-3)Gal(b1-4)[Fuc(a1-3)]GlcNAc
# How it was run: as §1
# [13] = molecular target: GlcNAc(a1-6)Gal(b1-4)GlcNAc
# How it was run: as §1
# [14] = molecular target: GlcNAc(b1-2)Gal(b1-3)GalNAc
# How it was run: as §1
# [15] = molecular target: GlcNAc(b1-2)Man(a1-3)[GlcNAc(b1-2)Man(a1-6)]Man(b1-4)GlcNAc(b1-4)GlcNAc
# How it was run: as §1
# [16] = molecular target: GlcNAc(b1-2)Man(a1-3)[GlcNAc(b1-2)Man(a1-6)]Man(b1-4)GlcNAc(b1-4)[Fuc(a1-6)]GlcNAc
# How it was run: as §1
# [17] = molecular target: GlcNAc(b1-2)[GlcNAc(b1-4)]Man(a1-3)[GlcNAc(b1-2)Man(a1-6)]Man(b1-4)GlcNAc(b1-4)GlcNAc
# How it was run: as §1
# GlcNAc(b1-3)Gal = molecular target: GlcNAc(b1-3)Gal
# How it was run: as §1
# [18] = molecular target: GlcNAc(b1-3)Gal(b1-3)GalNAc
# How it was run: as §1
# GlcNAc(b1-3)Gal(b1-4)Glc = molecular target: GlcNAc(b1-3)Gal(b1-4)Glc
# How it was run: as §1
# [19] = molecular target: GlcNAc(b1-3)Gal(b1-4)GlcNAc
# How it was run: as §1
# [20] = molecular target: GlcNAc(b1-3)Gal(b1-4)GlcNAc(b1-3)Gal(b1-4)GlcNAc
# How it was run: as §1
# GlcNAc(b1-3)GalNAc = molecular target: GlcNAc(b1-3)GalNAc
# How it was run: as §1
# GlcNAc(b1-3)Man = molecular target: GlcNAc(b1-3)Man
# How it was run: as §1
# [21] = molecular target: GlcNAc(b1-3)[GlcNAc(b1-4)][GlcNAc(b1-6)]GlcNAc
# How it was run: as §1
# [22] = molecular target: GlcNAc(b1-3)[GlcNAc(b1-6)]Gal(b1-4)GlcNAc
# How it was run: as §1
# [23] = molecular target: GlcNAc(b1-3)[GlcNAc(b1-6)]GalNAc
# How it was run: as §1
# [24] = molecular target: GlcNAc(b1-4)Gal(b1-4)GlcNAc
# How it was run: as §1
# GlcNAc(b1-4)GlcNAc = molecular target: GlcNAc(b1-4)GlcNAc
# How it was run: as §1
# [25] = molecular target: GlcNAc(b1-4)GlcNAc(b1-4)GlcNAc
# How it was run: as §1
# [26] = molecular target: GlcNAc(b1-4)GlcNAc(b1-4)GlcNAc(b1-4)GlcNAc(b1-4)GlcNAc
# How it was run: as §1
# [27] = molecular target: GlcNAc(b1-4)GlcNAc(b1-4)GlcNAc(b1-4)GlcNAc(b1-4)GlcNAc(b1-4)GlcNAc
# How it was run: as §1
# [28] = molecular target: GlcNAc(b1-4)[GlcNAc(b1-6)]GalNAc
# How it was run: as §1
# [29] = molecular target: GlcNAc(b1-6)Gal(b1-4)GlcNAc
# How it was run: as §1
# GlcNAc(b1-6)GalNAc = molecular target: GlcNAc(b1-6)GalNAc
# How it was run: as §1
# GlcNAc3Prop(b1-4)GlcNAc = molecular target: GlcNAc3Prop(b1-4)GlcNAc
# How it was run: as §1
binder,measurement,setting,value
"CTLY 1 (Homo sapiens), Q6ZS10 (protein) AITCPEGWLPFEGKCYYFSPSTKSWDEARMFCQENYSHLVIINSFAEHNFVAKAHGSPRVYWLGLNDRAQEGDWRWLDGSPVTLSFWEPEEPNNIHDEDCATMNKGGTWNDLSCYKTTYWICERKGLNDIFEAQKIEWHE",glycan array binding signal (z-score),[1],-0.243
same,glycan array binding signal (z-score),[2],-0.231
same,glycan array binding signal (z-score),[3],-0.235
same,glycan array binding signal (z-score),GalNAc(b1-3)GalNAc,-0.24
same,glycan array binding signal (z-score),GalNAc(b1-4)GlcNAc,-0.242
same,glycan array binding signal (z-score),[4],-0.235
same,glycan array binding signal (z-score),Glc(a1-4)Glc,-0.243
same,glycan array binding signal (z-score),Glc(a1-6)Glc(a1-6)Glc,-0.243
same,glycan array binding signal (z-score),Glc(b1-4)Glc,-0.243
same,glycan array binding signal (z-score),Glc(b1-6)Glc,-0.233
same,glycan array binding signal (z-score),GlcA(b1-3)Gal,-0.248
same,glycan array binding signal (z-score),GlcA(b1-3)GlcNAc,-0.229
same,glycan array binding signal (z-score),GlcA(b1-6)Gal,-0.241
same,glycan array binding signal (z-score),[5],-0.236
same,glycan array binding signal (z-score),[6],-0.227
same,glycan array binding signal (z-score),[7],-0.228
same,glycan array binding signal (z-score),[8],-0.232
same,glycan array binding signal (z-score),[9],-0.237
same,glycan array binding signal (z-score),[10],-0.241
same,glycan array binding signal (z-score),[11],-0.229
same,glycan array binding signal (z-score),[12],-0.095
same,glycan array binding signal (z-score),[13],-0.237
same,glycan array binding signal (z-score),[14],-0.012
same,glycan array binding signal (z-score),[15],-0.058
same,glycan array binding signal (z-score),[16],-0.209
same,glycan array binding signal (z-score),[17],1.24
same,glycan array binding signal (z-score),GlcNAc(b1-3)Gal,-0.238
same,glycan array binding signal (z-score),[18],-0.205
same,glycan array binding signal (z-score),GlcNAc(b1-3)Gal(b1-4)Glc,-0.251
same,glycan array binding signal (z-score),[19],-0.237
same,glycan array binding signal (z-score),[20],-0.237
same,glycan array binding signal (z-score),GlcNAc(b1-3)GalNAc,-0.242
same,glycan array binding signal (z-score),GlcNAc(b1-3)Man,-0.244
same,glycan array binding signal (z-score),[21],0.951
same,glycan array binding signal (z-score),[22],0.14
same,glycan array binding signal (z-score),[23],-0.066
same,glycan array binding signal (z-score),[24],-0.212
same,glycan array binding signal (z-score),GlcNAc(b1-4)GlcNAc,-0.239
same,glycan array binding signal (z-score),[25],-0.218
same,glycan array binding signal (z-score),[26],-0.241
same,glycan array binding signal (z-score),[27],-0.242
same,glycan array binding signal (z-score),[28],0.086
same,glycan array binding signal (z-score),[29],-0.229
same,glycan array binding signal (z-score),GlcNAc(b1-6)GalNAc,-0.218
same,glycan array binding signal (z-score),GlcNAc3Prop(b1-4)GlcNAc,-0.085
